According to PubChem BioAssay AID488969 (Vanderbilt High Throughput Screening Facility, 2010):
Whole data set: some 110,000 compounds, median “z-score” near -0.1, cut for the highest 2% near 2. The list shows a part of the results. The source made the active and inactive calls.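 Rule for the calls: active = z-score in the third read window above 3 or below -3; inactive = the rest.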

biological target: Metabotropic glutamate receptor 8 (Rattus norvegicus) (UniProt P70579); assay: rat mGluR8 modulators via GIRK flux, primary screen, cell-based, thallium flux, HTS (AID 488969); conditions: HEK293 rat mGluR8, GIRK (G protein-gated inwardly rectifying potassium channel) thallium flux, FluoZin2; at 10 µM; stronger effect = higher value; submaximal glutamate (EC20) added with thallium
UniProt P70579, sequence (P70579 whole entry, looked up): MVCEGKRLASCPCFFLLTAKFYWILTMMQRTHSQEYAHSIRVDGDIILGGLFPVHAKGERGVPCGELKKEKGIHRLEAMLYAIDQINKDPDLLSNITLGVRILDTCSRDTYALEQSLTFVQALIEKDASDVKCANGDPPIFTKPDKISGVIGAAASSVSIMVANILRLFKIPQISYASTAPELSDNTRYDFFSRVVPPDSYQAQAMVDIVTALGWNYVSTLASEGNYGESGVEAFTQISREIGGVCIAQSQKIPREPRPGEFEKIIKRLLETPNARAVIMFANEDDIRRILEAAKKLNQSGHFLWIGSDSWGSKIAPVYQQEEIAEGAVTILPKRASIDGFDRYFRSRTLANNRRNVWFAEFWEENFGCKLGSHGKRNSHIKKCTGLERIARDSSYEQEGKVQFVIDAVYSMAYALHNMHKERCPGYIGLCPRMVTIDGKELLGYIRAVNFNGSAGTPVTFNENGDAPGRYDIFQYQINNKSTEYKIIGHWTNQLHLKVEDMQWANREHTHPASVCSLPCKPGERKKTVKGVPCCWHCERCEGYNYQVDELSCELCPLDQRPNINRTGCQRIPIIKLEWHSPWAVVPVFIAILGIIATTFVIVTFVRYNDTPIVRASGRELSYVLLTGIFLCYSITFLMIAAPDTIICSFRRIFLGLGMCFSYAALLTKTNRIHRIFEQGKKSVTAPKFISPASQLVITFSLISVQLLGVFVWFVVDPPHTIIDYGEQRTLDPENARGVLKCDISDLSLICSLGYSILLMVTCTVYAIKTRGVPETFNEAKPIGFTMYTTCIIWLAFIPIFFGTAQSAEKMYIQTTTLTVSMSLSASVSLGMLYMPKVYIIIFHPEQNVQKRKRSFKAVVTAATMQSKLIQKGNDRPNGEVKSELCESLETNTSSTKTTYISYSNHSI

Structure (SMILES) | z-score
CCC1(C)Cc2ccccc2-c2nc(-c3ccccc3)oc(=O)c21 (stereo not drawn) | -0.0643
Cc1cnc(C(=O)Nc2ccc(N3CCN(C(=O)OC(C)(C)C)CC3)cc2)cn1 | 0.415
CC(=O)Nc1ccccc1C(=O)C(=O)Nc1cccc(C(=O)NCc2ccccc2)c1 | 1.12
Cc1ccc(S(=O)(=O)N2CCN(CC(=O)N(CC(C)C)c3c(N)n(CC(C)C)c(=O)[nH]c3=O)CC2)c(C)c1 | -0.207
CC(NC(=O)/C=C/c1ccco1)c1nc2ccccc2n1Cc1cccc(Cl)c1 (stereo not drawn) | -0.452
Cc1cccc(-c2nc(CS(=O)CC(=O)NC3CCCC3)c(C)o2)c1 (stereo not drawn) | -0.388
CC(=O)Nc1ccc(OCC(=O)NCCc2ccc(Cl)cc2)cc1 | -0.248
CCCCOC(=O)CCc1c(C)[nH]c(=O)c(C#N)c1C | 0.328
Nc1nc2ccccc2nc1N1CCCC1 | -0.139
Cc1sc(NC(=O)c2ccco2)c(C(=O)c2ccc(Cl)cc2)c1C | -0.135
CCOc1ccccc1C(=O)N(C)Cc1cc2ccccc2[nH]c1=O | -0.136
O=C(COc1ccccc1)NCC(=O)N/N=C/c1cc(Br)ccc1OCc1ccccc1 | -0.0662
c1ccc(C2OCC3(CO2)COC(c2ccccc2)OC3)cc1 (stereo not drawn) | -0.213
Cc1ccc(-n2nc(-c3cccs3)cc2C(=O)NCC2CCCO2)c(C)c1 (stereo not drawn) | active: -3.26
Cc1cc(C(=O)NC(C)C2CCCO2)cs1 (stereo not drawn) | 0.307
CCOC(=O)Cc1csc(NC(=O)CSc2nnnn2-c2ccc(F)cc2)n1 | 0.951
N#C/C(=C(/O)Cc1cccc2ccccc12)c1nc2ccccc2s1 | -0.341
Cc1ccc(NC(=O)CCC(C(=O)O)N2C(=O)c3ccccc3C2=O)cc1 (stereo not drawn) | -0.00744
O=C(c1cccc(F)c1)N1CCN(C(=O)c2nn3cccnc3c2Cl)CC1 | -0.043
Cn1nnnc1SCC(=O)Nc1ccc(Cl)cc1Cl | 0.069
O=C1/C(=C/c2ccco2)N=C(N2CCCCC2)N1c1ccccc1 | -0.387
CCn1c(SCC(=O)NC2CCCC2)nnc1-c1c[nH]c2ccccc12 | -0.117
COc1ccc(CCNS(=O)(=O)c2ccc3c(c2)CCN3C(=O)CCC(=O)O)cc1OC | 0.0693

Structure (SMILES) | z-score
CCCc1cc2c(c(NC(C)=O)n1)c(=O)oc1ccccc12 | 0.703
COc1ccc(C2C(C#N)=C(N)OC3=C2C(=O)CCC3)cc1Cn1nc(C)c([N+](=O)[O-])c1C (stereo not drawn) | -0.18
C=C(C)Cn1c(Sc2nnc(C)s2)nc2c1c(=O)[nH]c(=O)n2C | 1.46
Cc1c(C(=O)Nc2c(C)n(C)n(-c3ccccc3)c2=O)oc2ccccc12 | 0.492
CCCCCCC1CC(CSc2ncn[nH]2)OC1=O (stereo not drawn) | -0.0128
O=C(Oc1ccc2c(=O)c(Oc3ccc4ccccc4c3)coc2c1)c1ccco1 | -0.534
Cc1sc2ncn(CC(=O)NCc3ccccn3)c(=O)c2c1S(=O)(=O)N1CCOCC1 | 0.542
COc1cc2c(cc1NC(=O)c1ccc(C)c([N+](=O)[O-])c1)oc1ccccc12 | -0.706
Cc1cc(-c2ccccc2)c(C#N)c(SCC(N)=O)n1 | 0.0144
COc1ccc(N2CCN(C(=O)CCc3ccc(S(=O)(=O)NCC(C)C)cc3)CC2)cc1 | -0.82
COC(=O)c1ccc(NC(=S)Nc2ccccc2)cc1 | 0.0759
COc1ccccc1NS(=O)(=O)/C=C/c1ccccc1 | -0.311
CSc1nc(C)c2c(n1)N(c1ccc(F)cc1)CC2 | -0.0784
O=C1NC(c2ccc(-c3ccccc3[N+](=O)[O-])o2)C(C(=O)c2ccccc2)C(O)(C(F)(F)F)N1 (stereo not drawn) | 0.136
Cc1cccc(NC(=O)C2CCCN(S(=O)(=O)c3cccc4nsnc34)C2)c1 (stereo not drawn) | 0.431
O=C(NCc1ccco1)c1nc2ncccn2n1 | -0.0347
COc1cc(SC)ccc1C(=O)NCC1CCCO1 (stereo not drawn) | 0.267
Cc1cccc(N=C2NC(=O)S/C2=C\c2ccco2)c1 | -0.382
CC1CCc2c(sc(N)c2C(=O)OC(C)C)C1 (stereo not drawn) | 0.201
O=C(NCc1ccncc1)C1CCN(S(=O)(=O)Cc2ccccc2)CC1 | -0.264
COc1ccc(CNC(=O)Cn2nc(Cc3cccnc3)c3ccccc3c2=O)cc1 | -0.168
COc1cc(-c2nc(-c3ccc4c(c3)-c3ccccc3S4(=O)=O)c(-c3ccccc3)[nH]2)cc(OC)c1OC | -0.0889
CCc1c(C)nc2ncnn2c1N1CCCC(C(=O)NCCc2ccccc2)C1 (stereo not drawn) | 0.12

Structure (SMILES) | z-score
Cc1ccc2cccc(NC(=S)NC(=O)c3ccccc3)c2n1 | 1.02
Cc1noc(C)c1C(=O)OCC(=O)Nc1ccccc1Oc1ccccc1 | -0.286
Cn1nc(CC(=O)NC2CCCCCC2)c2ccccc2c1=O | 0.0187
O=C(O)CCc1ccc(-c2ccccc2)o1 | 0.23
COc1cc(NS(=O)(=O)c2ccc(NS(=O)(=O)c3ccccc3)cc2)nc(OC)n1 | -0.542
COc1ccc(NC(=O)CSc2nnc(-c3ccccn3)n2N)c(OC)c1 | 0.305
CN1CCC(OC(=O)COc2ccccc2)CC1 | -0.0301
CC1(C)Cc2ccccc2C(/C(=N/O)C(N)=O)=N1 | -0.57
CCOP(=O)(c1ccccc1)c1nc(-c2ccccc2Cl)oc1N1CCCCC1 (stereo not drawn) | -0.646
O=C(CN1C2=NCCN2c2ccccc21)c1ccc2c(c1)OCO2 | 0.194
Cc1cccc(C)c1NC(=O)C1c2ccccc2Oc2ccccc21 | 0.0271
CCC(C)NC(=O)NC1C(NC(=O)NC(C)CC)N(C)C(=O)N1C (stereo not drawn) | 0.0351
O=C(c1cccc(N2C(=O)C3CC=CCC3C2=O)c1)N1CCCCCC1 (stereo not drawn) | -0.249
CCOc1cccc(NC(=O)C2CC(=O)N(C)C(=Nc3cccc(F)c3)S2)c1 (stereo not drawn) | 0.605
COc1cc2c(cc1OC)C(C)N(C(=O)c1ccc(Br)o1)CC2 (stereo not drawn) | -0.202
COc1ccc(Oc2coc3cc(OC(=O)c4cccs4)ccc3c2=O)cc1 | -0.0373
Cn1nnnc1SCC(=O)N1CCN(c2ccccc2)CC1 | 0.637
COC(=O)N(NC(=O)C(O)(c1ccccc1)c1ccccc1)c1ccc(C)cc1 | -0.383
O=C(NCc1cccs1)C1CCCCC1 | -0.167
COc1ccc(CCNc2oc(COc3ccc(F)cc3)nc2C#N)cc1 | -0.0977
CC(=O)N(C(C)=O)S(=O)(=O)c1ccc(N=NN2CCOCC2)cc1 | -0.141
C=C(C)c1cccc(C(C)(C)NC(=O)Nc2ccc(C(C)=O)cc2)c1 | -0.211
CCOC(=O)C(NC(=O)CC)C(O)c1cccc([N+](=O)[O-])c1 (stereo not drawn) | -0.0778

Structure (SMILES) | z-score
CC(C)CNC(=O)c1cccc(NC(=O)Cc2ccc(Br)cc2)c1 | -0.457
CC(NC(=O)Cc1ccc(F)cc1)c1ccc(F)cc1 (stereo not drawn) | -0.227
c1ccc(OCCCN2CCCC2)cc1 | 0.00842
CCN(CC)C(=O)Cn1c(=O)n(CCCCCC(=O)Nc2ccccc2)c(=O)c2sccc21 | -0.35
Cc1ccnc2nc(C(=O)OCC(=O)Nc3ccc4c(c3)OC(F)(F)O4)nn12 | 0.14
COCCOC(=O)C1=C(C)Nc2nc(C)nn2C1c1ccc(F)cc1 (stereo not drawn) | -0.236
CCCC1CCc2c(sc(NC(=O)c3cccs3)c2C(N)=O)C1 (stereo not drawn) | 0.0373
O=C(OC(C(=O)NCC1CCCO1)c1ccc(F)cc1)c1cccs1 (stereo not drawn) | -0.0339
CCC1(C)Cc2c(sc3nc4n(c(=O)c23)CCS4)CO1 (stereo not drawn) | -0.566
Cc1ccc(C(=O)Nc2ccc(Br)c(C(F)(F)F)c2)cc1 | -0.0791
Brc1ccccc1-c1nnc(-c2cccnc2)o1 | -0.13
Cc1noc(C)c1S(=O)(=O)N1CCC(C(=O)N(C)Cc2ccccc2)CC1 | -0.182
COCCn1c(CN2CCN(C)CC2)nc2c1c(=O)n(C)c(=O)n2C | -0.268
CCN1CCCC1CNC(=O)C(NC(=O)C1CCC(C)CC1)C(C)C (stereo not drawn) | 0.106
CNC(=O)CN(C)S(=O)(=O)c1ccc(F)cc1 | -0.224
CN(CCOC(=O)c1ccccc1)Cc1ccccc1 | -0.0538
C#CCSc1nnc(-c2ccc(OC)cc2)o1 | -0.173
O=C(c1ccc2snnc2c1)N1CCN(c2ccccc2)CC1 | -0.398
O=C1CCCc2ccccc2N1Cc1c(Cl)cccc1Cl | -1.28
O=C(CSc1nnnn1-c1ccc2c(c1)OCCO2)c1cccc2c1OCCO2 | -0.744
CCOc1cccc(OCCOCCN(C)Cc2ccccc2)c1 | 0.36
COCCCn1c(SCc2nnc(-c3ccccc3)o2)nc2sc3c(c2c1=O)CCC3 | -0.256
CN(C)S(=O)(=O)c1cccc(C(=O)OCC(=O)NC2CCCc3ccccc32)c1 (stereo not drawn) | -0.456

Structure (SMILES) | z-score
Cc1ccc(-n2nnnc2-c2cnc(N3CCCC3)nc2C(F)(F)F)cc1 | -0.229
CC(=O)NCCNc1ccc([N+](=O)[O-])cn1 | -0.107
Cc1ccc(Cc2cnc(N3C(=N)SC(c4ccccc4)C3=O)s2)cc1 (stereo not drawn) | -0.268
CCOC(=O)c1[nH]c2c(c1C)C(=O)CC(c1ccc(OCC)c(OC)c1)C2 (stereo not drawn) | -0.395
c1ccc2c(c1)ncn2-c1ccc(-c2ccnc(-c3ccncc3)n2)cc1 | -0.331
Cc1cc(S(=O)(=O)N2CCN(c3ccccc3C)CC2)ccc1F | -0.0508
CCOC(=O)c1ccc(OCc2c(C)noc2C)cc1 | -0.679
CCCC(C)NC(=O)C1CCN(S(=O)(=O)c2ccccc2)CC1 (stereo not drawn) | -0.301
Cc1ccc(NC(=O)CN2C(=O)S/C(=C\c3cc(C)n(C)c3C)C2=O)cc1 | -0.307
Cc1cc(C(=O)Nc2cccc(C(=O)O)c2)c(C)o1 | -0.457
COc1ccc(N(C(=O)c2cccnc2)S(=O)(=O)c2ccc3c(c2)n(C)c(=O)n3C)cc1 | 0.0313
Cc1ccc(C(=O)CC2SC(N)=NC2=O)cc1 (stereo not drawn) | 0.0278
O=C(NNC(=S)Nc1ccc(Br)cc1Cl)c1ccncc1 | 1.44
O=C(NC(Cc1c[nH]c2ccccc12)C(=O)O)c1ccco1 (stereo not drawn) | -0.347
COc1cccc(CNC(=O)Cn2cc3c(n2)CCCCC3)c1 | -0.00462
CCNc1nnc(-c2ccncc2)s1 | -0.233
COc1ccc(Nc2nc(-c3cccs3)cs2)cc1 | -0.0486
COC(=O)Cn1cnc2ccccc2c1=O | -0.0598
COCCN1Cc2cccc(C(=O)N3CCN(c4cc(C)ccc4C)CC3)c2C1=O | 0.281
CC(NC(=O)Cc1c(F)cccc1Cl)C1CCCO1 (stereo not drawn) | 0.00512
Cc1noc(C)c1COC(=O)c1cc2ccccc2cc1O | -0.301
